According to the supplement of paper PMC11417369:
± gives the standard deviation of the averaged measurements. The list shows a part of the results.

The sequences below were run on PfAP2-I AP2 domain 3 (GST-tagged) (assay: gcPBM binding intensity (ln(normalized median fluorescence intensity)); higher = stronger DNA binding).
Outline: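 Binding of GST-tagged P. falciparum DNA-binding domains, expressed in E. coli and used at about 25 μg on average, was carried out for 1 h in 1× PBS containing 1% milk, 0.2 mg/ml BSA, 0.5% salmon testes DNA and 0.03% Triton X-100. The target was an Agilent 4 × 180k array of primer-extended double-stranded 36-bp intergenic genomic probes plus negative controls, read with Alexa488 anti-GST antibody at 488 nm. Binding intensity is the highest Masliner-normalised natural-log median intensity across replicate spots of either probe orientation.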

Row | Sequence | gcPBM binding intensity (ln)
1 | TATTAGCATGTTATTACACACAATATAAGATATATA [CACACA_site6775] | 7.69 ± 0.52
2 | AATATATATTTATAAACACACACCAAAATTTGTGCT [CACACA_site3091] | 7.8 ± 0.5
3 | ACATTTTGTGTTTTAGCACACAATTTTTCAGAATAT [CACACA_site2961] | 8.38 ± 0.4
4 | ATATTATAATATTTATGTACATATATATAATATATA [XGTACX_site1633] | 7.7 ± 0.29
5 | ATATGTAGTTTTTACCTAATAAAAAAAAAAAAAAAA [CACACA_negctrl_site672] | 8.09 ± 0.79
6 | TTGTATTTACACGATCAACCAAATGGTATATAAATA [GTGCAC_negctrl_site167] | 7.82 ± 0.29
7 | TAAACATATAAAAAGGGTACACATTAAACATAGTAT [XGTACX_site7096] | 7.99 ± 0.67
8 | AAATCATTCCTTTATTCACACAATATCTGTATTTAT [CACACA_site4407] | 7.91 ± 0.72
9 | ATAGCTAAGATAGCTTGTACATATATTTACATATAT [XGTACX_site3694] | 7.3 ± 0.45
10 | AAAACAAATTAAAATCGTACAATTATAATGTTAATG [XGTACX_site180] | 7.5 ± 0.41
11 | TATAAAATAAAAATTATATATTTTAAATGGATACAA [TGCATGCA_negctrl_site284] | 7.59 ± 0.59
12 | ATGCACATTTATAAAAGTACATGTATGTAATATGTT [XGTACX_site830] | 7.84 ± 0.5
13 | ATTTAAATGAAAAAATGTACAAAAAGATTTAAACTC [XGTACX_site1489] | 8.13 ± 0.49
14 | TATAATAAATCATATGCATGTTGAAAAAAAAAAAAA [TGCATGCA_site923] | 8.1 ± 0.75
15 | ATTTGAGAGTTAACAAAATATTTGGCCATCTTTTAT [XGTACX_negctrl_site447] | 7.54 ± 0.42
16 | AATGTCCTTATTTGCACACACACATATAAGAAATTT [CACACA_site3186] | 9.91 ± 0.23
17 | AACTCATAGCGGTGTGCACACAAAAAATTAAAAAAA [CACACA_site3033] | 9.9 ± 0.2
18 | TCATAAATGAAACACACACACACATCTGGATACCCC [CACACA_site3332] | 8.26 ± 0.38
19 | ATTATATATATAAAGTGTACAAAAAAAAAAAAAAAA [XGTACX_site3134] | 8.18 ± 0.54
20 | AATCAATATAAATAAAATTTTTAATTTTAACCCTAA [GTGCAC_negctrl_site266] | 7.36 ± 0.38
21 | GAGATGACATTACACAGTACCCAGGAAATCTACGGA [XGTACX_site4931] | 7.54 ± 0.71
22 | TATATATTGTTATATACACACATGTATATAAAAAAT [CACACA_site3221] | 7.7 ± 0.47

Row | Sequence | gcPBM binding intensity (ln)
23 | CAAAAAAGGTCCCGGAGTACATATATAATTTTTTTT [XGTACX_site458] | 7.92 ± 0.33
24 | ATTGTCCTAAATACTACAAAGTAGATCTTTAATATT [CACACA_negctrl_site1795] | 7.53 ± 0.4
25 | TAATTCCATAAGTAAACACACAAATGCCAAAATTTT [CACACA_site3205] | 7.89 ± 0.63
26 | GTGCGTGCGTGTACTTAACACACATAATATGTATTT [CACACA_site8336] | 8.85 ± 0.085
27 | TCCATATGCAAACTGGTGCACAAGTAGCTTTTATAT | 11.15 ± 0.028
28 | TTTCTTTTTCTAGTTATTTTTACTTATCCCTAATTT [TGCATGCA_negctrl_site460] | 7.71 ± 0.6
29 | TTATAATTAAGATATAATCAATAATAACAAATGAAC [CACACA_negctrl_site1690] | 7.82 ± 0.44
30 | TTCTTTGCTTCTGTTTCACACATTTTTAAAATAAGC [CACACA_site4741] | 8.54 ± 0.59
31 | TTAAGCCGCAATATGGGTACATAGGAAGAAGGGGAA [XGTACX_site8397] | 8.01 ± 0.51
32 | ATATATAAAAATATTTGTACATATAGTTATATTTAT [XGTACX_site6114] | 7.61 ± 0.4
33 | TTAAAGGGAATGTATACACACGTTTCTCTATGTTAT [CACACA_site4793] | 7.49 ± 0.81
34 | TTTTTCCCCCTTTTTTTGATTTTTATCTTAATTCTA [TGCATGCA_negctrl_site287] | 7.67 ± 0.28
35 | ATATAATAACAAAAGGTGCGCATTAAGACAAAAAAA | 10.08 ± 0.028
36 | TATTATATTGTTCATTTACACTTTCATTTTAAAAAA [CACACA_negctrl_site260] | 8.05 ± 0.54
37 | AAGGATTATTTTAATCGTACATGTGTAAATAATATA [XGTACX_site6177] | 7.87 ± 0.49
38 | TTTTTTCATTTTTTATTTTTTTATTTTTTACATATT [GTGCAC_negctrl_site137] | 7.76 ± 0.49
39 | TTTTTTAAAATAATAGGTACACATAAAAAAAAAAAA [XGTACX_site2517] | 8.2 ± 0.56
40 | TATATATATAGACACACACACATATAAATAAATAAA [CACACA_site444] | 8.55 ± 0.23
41 | TTATTTATTTTCATATGTACTTATTTATAGAGGTTG [XGTACX_site5599] | 8.04 ± 0.38
42 | CATACATACATACATACACACATATATATATATATG [CACACA_site1995] | 8.88 ± 0.51
43 | AAAAAAAAATAATATACACACTCCAATATAAAAAAT [CACACA_site3958] | 7.65 ± 0.51
44 | CGCACTAAAAAACACACACACACACCCATATATATA [CACACA_site4152] | 8.31 ± 0.69

Row | Sequence | gcPBM binding intensity (ln)
45 | TGTGTATTATAAACATGTACATAAAAATACGATATT [XGTACX_site3643] | 8.51 ± 0.071
46 | TGTTATTAAAATATAGTGCATAATTAACCATTATAA [GTGCAC_site9594] | 10.8 ± 0.65
47 | CACACGCACGGACACACACACATATAAAATCTATAT [CACACA_site6428] | 8.675 ± 0.064
48 | TACTTATATACACATGTATATTATATATATAATATA [XGTACX_negctrl_site335] | 7.89 ± 0.35
49 | TAATAATATATTTGTAGTACACAATTTTTTATAACT [XGTACX_site3951] | 8.035 ± 0.007
50 | TACTATAACAGACATACACACAAAAAAAAAAAAAAA [CACACA_site538] | 8.03 ± 0.73
51 | ATTTTTTTTTTTTTTTTTTTTTTTTTTTAATCTGGA [CACACA_negctrl_site1347] | 7.56 ± 0.38
52 | ATATTTAACAGGTTAAAAATATAAACAAATAAATAA [CACACA_negctrl_site907] | 7.58 ± 0.7
53 | GAGAGGATAGTTCACAGTACTCAGTAACTCTACGGA [XGTACX_site4875] | 7.47 ± 0.8
54 | AATAAATAAATAAATAAAACAAAGGGATTACATACA [TGCATGCA_negctrl_site513] | 7.64 ± 0.62
55 | CACAACATATATATATATATATATATATATATGTGT [CACACA_negctrl_site28] | 9.005 ± 0.078
56 | ATATTTTGTTATGTAGATGTTGGTAGGAATTTTGGT [CACACA_negctrl_site1104] | 7.79 ± 0.45
57 | TACTTTTTAGGAAAGTGTACAAGCATATAAGGAATA [XGTACX_site2834] | 8.04 ± 0.57
58 | TTAAAAAAATATTGAAGTACACACATTATAAACTTT [XGTACX_site3548] | 7.89 ± 0.38
59 | TTTCATATATATGAAACACACAAAGGAAAAAAAATT [CACACA_site4144] | 8.04 ± 0.77
60 | ATATAATAAAATTAATGTACATATATGTATTATATA [XGTACX_site3283] | 7.59 ± 0.26
61 | GCTCATATGACAACAACACACAAAAAAATAAAATGA [CACACA_site714] | 7.8 ± 0.69
62 | AACATAATCTCATATACACACAAAAATATTGAAATA [CACACA_site7085] | 7.7 ± 0.49
63 | ACAAGTTTATTTGTTGCACACATATAAGTAGAGAAA [CACACA_site8994] | 8.99 ± 0.2
64 | AAAAAAAAAAAACACACACACATAGACCTCCAATAG [CACACA_site3562] | 7.93 ± 0.37
65 | AGGTAGAAAAAAGACACACACATTATATATATATAT [CACACA_site4367] | 9.43 ± 0.33
66 | ATATGCTACATTATATGTACACACATATACATATAT [XGTACX_site1656] | 8.14 ± 0.37

Row | Sequence | gcPBM binding intensity (ln)
67 | TAATATAAAGAAATATCAATAATTTGGGCAAATGCC [GTGCAC_negctrl_site621] | 7.53 ± 0.45
68 | AAGGTGGTTATTAAATGTACACAGACATATACAAAA [XGTACX_site3007] | 8.2 ± 0.17
69 | TTTTATGCATGTGAAGTGCAAAATAAAAAATAAAAT [GTGCAC_site9612] | 10.8 ± 0.4
70 | TATATTTGTTAATTTTGTACGTATGGATATACATAA [XGTACX_site5100] | 7.72 ± 0.38
71 | TATAAATATAGAATTACACACAATGTTCTATAAATA [CACACA_site7508] | 7.35 ± 0.42
72 | TTTGTGGTTACATGTGCACACACTTATTTCGTTCTT [CACACA_site1435] | 9.38 ± 0.4
73 | GATATGTTTTCCTAGGTTCATGATGATAGGTAGTTT [XGTACX_negctrl_site217] | 7.78 ± 0.63
74 | TGTTAATATATCATTATGTTATAGGTTCAGCTGGGA [CACACA_negctrl_site401] | 7.78 ± 0.33
75 | AATATATAAATTGACACACACATATATACATATATA [CACACA_site1213] | 7.67 ± 0.48
76 | AATTTTTATATAATTTAACACACATTTCATATAAAA [CACACA_site9018] | 8.1 ± 0.33
77 | TTAGGATATTTATTTCGTACATATATTTTTAATTGT [XGTACX_site582] | 7.38 ± 0.49
78 | TATAAATTATTTATCACACATAAAACAAAAATAAGA [CACACA_site5493] | 8.04 ± 0.4
79 | TACTTCATATAATTAGCACACAATAATTTCTCATTT [CACACA_site2872] | 8.31 ± 0.45
80 | ATATATATTAAAAATAGTACATATAATAAAAATCAT [XGTACX_site4265] | 7.95 ± 0.46
81 | TGTATATGTTTAATTAGTACATATAAAGTAACAATA [XGTACX_site1207] | 7.91 ± 0.51
82 | ATATGAAATATATGTAGTACACATAATTAAAAGTAG [XGTACX_site6490] | 8.11 ± 0.54
83 | TACATATTCCTACAAATGTATAAATTATAAATATTA [XGTACX_negctrl_site30] | 7.38 ± 0.25
84 | AACGATATAGGTACTACACACATTATGTCATCCTAT [CACACA_site7205] | 7.96 ± 0.61
85 | TTCGTCTTTTTTCTCACACACCCTTTTTATTAAAAG [CACACA_site7225] | 8.34 ± 0.47
86 | AATAATATACCTCTTGTGCACATATTAAAAGTTCAT [GTGCAC_site9536] | 10.3 ± 0.62
87 | ATAATACAAAACACAAGTACATAAATTAAAAAGATG [XGTACX_site7839] | 8.15 ± 0.48
